Assay results as given in the supplement of paper PMC8728848.
The other results are listed elsewhere or left out.

Assays:
Test in all cases: glycan array binding signal (z-score within array); higher = stronger binding
Conditions in all cases: glycan notation: IUPAC condensed, linker removed
[1] = target: Gal(b1-4)GlcNAc(b1-3)GalNAc
Summary of the method: (§1)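 Glycan array data were curated from 3228 arrays in the Consortium for Functional Glycomics database and kept only where the protein sequence was available. Glycan names were converted to IUPAC-condensed notation, and columns mapping to the same glycan were averaged. The binding signal is a within-array Z-score, averaged across arrays of the same protein sequence at different concentrations or buffers and across linkers. Negative Z-scores can be read as non-binding.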

[2] = target: Gal(b1-4)GlcNAc(b1-3)[Gal(b1-4)GlcNAc(b1-6)]GalNAc
Summary of the method: as §1

[3] = target: Gal(b1-4)GlcNAc(b1-6)Gal(b1-4)GlcNAc(b1-6)GalNAc
Summary of the method: as §1

[4] = target: Gal(b1-4)GlcNAc(b1-6)GalNAc
Summary of the method: as §1

[5] = target: Gal(b1-4)GlcNAc(b1-6)[Gal(b1-3)]GalNAc
Summary of the method: as §1

Gal3S(b1-3)GalNAc = target: Gal3S(b1-3)GalNAc
Summary of the method: as §1

Gal3S(b1-3)GlcNAc = target: Gal3S(b1-3)GlcNAc
Summary of the method: as §1

[6] = target: Gal3S(b1-3)[Fuc(a1-4)]GlcNAc
Summary of the method: as §1

Gal3S(b1-4)Glc = target: Gal3S(b1-4)Glc
Summary of the method: as §1

Gal3S(b1-4)Glc6S = target: Gal3S(b1-4)Glc6S
Summary of the method: as §1

Gal3S(b1-4)GlcNAc = target: Gal3S(b1-4)GlcNAc
Summary of the method: as §1

Gal3S(b1-4)GlcNAc6S = target: Gal3S(b1-4)GlcNAc6S
Summary of the method: as §1

Gal3S6S(b1-4)GlcNAc = target: Gal3S6S(b1-4)GlcNAc
Summary of the method: as §1

Gal3S6S(b1-4)GlcNAc6S = target: Gal3S6S(b1-4)GlcNAc6S
Summary of the method: as §1

Gal4S(b1-4)GlcNAc = target: Gal4S(b1-4)GlcNAc
Summary of the method: as §1

Gal4S6S(b1-4)GlcNAc = target: Gal4S6S(b1-4)GlcNAc
Summary of the method: as §1

Gal6S(b1-4)Glc = target: Gal6S(b1-4)Glc
Summary of the method: as §1

Gal6S(b1-4)Glc6S = target: Gal6S(b1-4)Glc6S
Summary of the method: as §1

Gal6S(b1-4)GlcNAc = target: Gal6S(b1-4)GlcNAc
Summary of the method: as §1

GalNAc(a1-3)Gal = target: GalNAc(a1-3)Gal
Summary of the method: as §1

GalNAc(a1-3)GalNAc = target: GalNAc(a1-3)GalNAc
Summary of the method: as §1

[7] = target: GalNAc(b1-3)Gal(a1-4)Gal(b1-4)GlcNAc
Summary of the method: as §1

GalNAc(b1-3)GalNAc = target: GalNAc(b1-3)GalNAc
Summary of the method: as §1

GalNAc(b1-4)GlcNAc = target: GalNAc(b1-4)GlcNAc
Summary of the method: as §1

Glc(a1-4)Glc = target: Glc(a1-4)Glc
Summary of the method: as §1

Glc(a1-6)Glc(a1-6)Glc = target: Glc(a1-6)Glc(a1-6)Glc
Summary of the method: as §1

Glc(b1-4)Glc = target: Glc(b1-4)Glc
Summary of the method: as §1

Glc(b1-6)Glc = target: Glc(b1-6)Glc
Summary of the method: as §1

GlcA(b1-3)Gal = target: GlcA(b1-3)Gal
Summary of the method: as §1

GlcA(b1-6)Gal = target: GlcA(b1-6)Gal
Summary of the method: as §1

[8] = target: GlcNAc(a1-3)Gal(b1-4)GlcNAc
Summary of the method: as §1

[9] = target: GlcNAc(a1-6)Gal(b1-4)GlcNAc
Summary of the method: as §1

[10] = target: GlcNAc(b1-2)Gal(b1-3)GalNAc
Summary of the method: as §1

[11] = target: GlcNAc(b1-2)Man(a1-3)[GlcNAc(b1-2)Man(a1-6)]Man(b1-4)GlcNAc(b1-4)GlcNAc
Summary of the method: as §1

GlcNAc(b1-3)Gal = target: GlcNAc(b1-3)Gal
Summary of the method: as §1

[12] = target: GlcNAc(b1-3)Gal(b1-3)GalNAc
Summary of the method: as §1

GlcNAc(b1-3)Gal(b1-4)Glc = target: GlcNAc(b1-3)Gal(b1-4)Glc
Summary of the method: as §1

B1: RSVL (Crotalus atrox), P21963 (protein)
chain: NNCPLDWLPMNGLCYKIFNQLKTWEDAEMFCRKYKPGCHLASFHRYGESLEIAEYISDYHKGQENVWIGLRDKKKDFSWEWTDRSCTDYLTWDKNQPDHYQNKEFCVELVSLTGYRLWNDQVCESKDAFLCQCKF
glycan array binding signal (z-score) [1]: -0.171
glycan array binding signal (z-score) [2]: 5.41
glycan array binding signal (z-score) [3]: 4.03
glycan array binding signal (z-score) [4]: 4
glycan array binding signal (z-score) [5]: 5.05
glycan array binding signal (z-score) (Gal3S(b1-3)GalNAc): -0.365
glycan array binding signal (z-score) (Gal3S(b1-3)GlcNAc): -0.363
glycan array binding signal (z-score) [6]: -0.368
glycan array binding signal (z-score) (Gal3S(b1-4)Glc): -0.355
glycan array binding signal (z-score) (Gal3S(b1-4)Glc6S): -0.362
glycan array binding signal (z-score) (Gal3S(b1-4)GlcNAc): -0.362
glycan array binding signal (z-score) (Gal3S(b1-4)GlcNAc6S): -0.363
glycan array binding signal (z-score) (Gal3S6S(b1-4)GlcNAc): -0.351
glycan array binding signal (z-score) (Gal3S6S(b1-4)GlcNAc6S): -0.362
glycan array binding signal (z-score) (Gal4S(b1-4)GlcNAc): -0.367
glycan array binding signal (z-score) (Gal4S6S(b1-4)GlcNAc): -0.364
glycan array binding signal (z-score) (Gal6S(b1-4)Glc): -0.038
glycan array binding signal (z-score) (Gal6S(b1-4)Glc6S): -0.347
glycan array binding signal (z-score) (Gal6S(b1-4)GlcNAc): -0.358
glycan array binding signal (z-score) (GalNAc(a1-3)Gal): 3.98
glycan array binding signal (z-score) (GalNAc(a1-3)GalNAc): 4.76
glycan array binding signal (z-score) [7]: 0.559
glycan array binding signal (z-score) (GalNAc(b1-3)GalNAc): -0.058
glycan array binding signal (z-score) (GalNAc(b1-4)GlcNAc): 0.124
glycan array binding signal (z-score) (Glc(a1-4)Glc): -0.367
glycan array binding signal (z-score) (Glc(a1-6)Glc(a1-6)Glc): -0.366
glycan array binding signal (z-score) (Glc(b1-4)Glc): -0.36
glycan array binding signal (z-score) (Glc(b1-6)Glc): -0.364
glycan array binding signal (z-score) (GlcA(b1-3)Gal): -0.366
glycan array binding signal (z-score) (GlcA(b1-6)Gal): -0.294
glycan array binding signal (z-score) [8]: -0.36
glycan array binding signal (z-score) [9]: 3.53
glycan array binding signal (z-score) [10]: -0.364
glycan array binding signal (z-score) [11]: -0.364
glycan array binding signal (z-score) (GlcNAc(b1-3)Gal): -0.366
glycan array binding signal (z-score) [12]: -0.364
glycan array binding signal (z-score) (GlcNAc(b1-3)Gal(b1-4)Glc): -0.367
